Measured values taken from PubChem BioAssay AID1347044 (National Center for Advancing Translational Sciences (NCATS), 2019).
The list shows a part of the results. The main result of the screen is listed elsewhere. These columns were measured beside it and carry no call. Most of these compounds were active or inconclusive in the main read-out, so they are no random draw. Potencies come from curve fits of mixed quality, noted in brackets.

test: Natriuretic polypeptide receptor (hNpr1) antagonism - Confirmation; conditions: HEK293 hNpr1 cGMP GloSensor luminescence, ANP-stimulated; measured here: HEK-hNpr1 cytotoxicity, CellTiter-Glo; note: nearly all actives have a fitted effect of over 70% in size
In short: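 Compound (30 min, room temperature) preceded stimulation with hNppA peptide at 0.1 nM final for 20 min. Cells were HEK293 carrying hNpr1 plus GloSensor pGS-40F cGMP biosensor, pre-equilibrated 2 h with 2% substrate; cGMP was followed as luminescence pre- and post-agonist.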
Tags give direction and shape of the fitted curve.

| Structure (SMILES) | CC50 |
| --- | --- |
| Cc1ccccc1C(=O)N1CCC2(CC1)N=C(c1ccc(Br)cc1)NO2 | 30.6 µM [falling, single point] |
| CC(C)c1nc(-c2ccc(OC3CCN(C(=O)c4cc(F)ccc4F)C3)cc2)no1 (configuration not stated) | 19.3 µM [falling, partial curve] |
| COc1cccc(-c2noc(CC3CCN(C(=O)c4cc(Cl)ccc4F)CC3)n2)c1 | 21.7 µM [falling, partial curve] |
| O=C(CCc1ccccc1)N1CCC(Cc2nc(-c3ccc(F)cc3)no2)CC1 | 17.2 µM [falling, partial curve] |
| Nc1nc(NCc2ccc(Cl)cc2Cl)cc(C2CC(O)C2)n1 (configuration not stated) | 17.2 µM [falling, partial curve] |
| Cc1cccc(CC(=O)N2CCCN(c3cc(-c4ccc(Br)cc4)[nH]n3)CC2)c1 | 43.2 µM [falling, single point] |
| CCOc1ccc(CN2CCN(c3nc4ccccc4o3)CC2CCO)cc1 (configuration not stated) | 24.3 µM [falling, partial curve] |
| COc1ccc(-c2noc(CC3CCN(C(=O)Cc4cccc(C)c4)CC3)n2)cc1 | 19.3 µM [falling, partial curve] |
| O=C(c1ccnc2ccccc12)N1CCC2(CC1)Nc1ccccc1NC2=O | 34.3 µM [falling, single point] |
| CCOc1ccc(C(=O)N2CCC(Cc3nc(-c4ccc(OC)cc4)no3)CC2)cc1OCC | 9.68 µM [falling, partial curve] |
| Cc1ccccc1CC(=O)N1CCC2(CC1)NC(=O)N(c1ccc(F)cc1)N2 | 24.3 µM [falling, partial curve] |
| COc1ccc2ccc(OCc3nc(C(=O)N4CCCC(C(N)=O)C4)co3)cc2c1 (configuration not stated) | 19.3 µM [falling, partial curve] |
| Cc1nn2c(c1-c1ccccc1Oc1ccccc1)N(Cc1cccc(C#N)c1)CCC2 | 70.3 µM [falling, single point] |
| COc1ccc(C2Cn3nnc(C(=O)N4CCN(C(=O)c5cccc(C)c5)CC4)c3CO2)cc1 (configuration not stated) | 19.3 µM [falling, partial curve] |
| O=C(CN1CCCc2nc(-c3ccncc3)ncc2C1=O)N1CCc2ccccc2C1 | 13.7 µM [falling, partial curve] |
| O=C(NC1CCN(Cc2ccccc2)CC1)c1cc2n(n1)CC(c1ccc3c(c1)OCO3)OC2 (configuration not stated) | 17.2 µM [falling, partial curve] |
| Cc1cc(NC(=O)Cc2c[nH]c3ncc(-c4ccccc4C)cc23)n(C)n1 | 35.3 µM [falling, partial curve] |
| Cn1nccc1C(=O)N1CCC2(CC1)OCCN(Cc1ccccc1F)C2=O | 35.3 µM [falling, partial curve] |
| Cc1ccc(C(=O)N2CCC3(CC2)N=C(c2ccc(Br)cc2)NO3)cc1 | 43.2 µM [falling, single point] |
| CC(C)c1ccc(CC(=O)N2CCCc3ncc(C(=O)Nc4ccccn4)cc32)cc1 | 28 µM [falling, partial curve] |
| CC(C)Oc1ccc(CN2C[C@@H](CO)[C@H](c3ccncc3)C2)cc1 | 27.3 µM [falling, partial curve] |

| Structure (SMILES) | CC50 |
| --- | --- |
| CC(=O)c1c(C)nn(CC(=O)N2CCn3nc(Cc4ccccc4)cc3C2)c1C | 19.3 µM [falling, partial curve] |
| COc1ccc(-c2noc(CC3CCN(C(=O)CCCc4ccccc4)CC3)n2)cc1 | 30.6 µM [falling, single point] |
| O=C(c1ccc(F)cc1Cl)N1CCC(n2cc(-c3nc(-c4ccccc4)no3)nn2)C1 (configuration not stated) | 9.68 µM [falling, partial curve] |
| Cn1c(CNC(=O)c2ccc3nccn3c2)nc2cc(C(F)(F)F)ccc21 | 30.6 µM [falling, single point] |
| CC(C)c1noc(-c2cn(C3CCN(C(=O)c4cccc(Cl)c4)C3)nn2)n1 (configuration not stated) | 24.3 µM [falling, partial curve] |
| COc1ccc(C(=O)N2CCC3(CC2)NC(=O)N(Cc2ccc(F)cc2)C3=O)cc1F | 21.7 µM [falling, partial curve] |
| CSc1cccc(NC(=O)Cn2c(N3CCC(C)CC3)nc(C)cc2=O)c1 | 17.2 µM [falling, partial curve] |
| CCc1ncc2c(=O)n(Cc3ccc(OC)cc3)ccn12 | 9.68 µM [falling, partial curve] |
| O=C(Cc1c[nH]c2ncc(-c3ccccc3)cc12)N1CCCC1 | 31.4 µM [falling, partial curve, poor fit] |
| O=C(NCCOc1ccccc1)c1cnc2n1CCN(Cc1c[nH]c3ccccc13)CC2 | 31.4 µM [falling, partial curve] |
| Cc1ccc2c(c1)nc1n2[C@@H](CNCc2ccccc2)COC1 | 35.3 µM [falling, partial curve] |
| CC(=O)c1cccc(NC(=O)O[C@@H]2CO[C@H]3[C@@H]2OC[C@@H]3NC(=S)NC2CCCCC2)c1 | 27.3 µM [falling, single point] |
| O=C(Nc1ccc(-c2cccc(F)c2)cc1)C1CCCN(C(=O)c2ccncc2)C1 (configuration not stated) | 17.2 µM [falling, partial curve] |
| O=C(c1ccccc1)N1CCc2sc(C(=O)N3CCN(c4ccc(F)cc4)CC3)cc2C1 | 17.2 µM [falling, partial curve] |
| COc1ccc(OC)c(CNC(=O)c2cccc3c2CCN3C(=O)c2ccc(F)cc2)c1 | 24.3 µM [falling, partial curve] |
| CCN(CC)C(=O)c1cc2c(s1)CCC(C(=O)Nc1ccc(OC)c(F)c1)C2 (configuration not stated) | 21.7 µM [falling, partial curve] |
| CC(=O)c1cccc(NC(=O)O[C@@H]2CO[C@H]3[C@@H]2OC[C@@H]3NC(=S)Nc2cccc3ccccc23)c1 | 19.3 µM [falling, partial curve] |
| CC(C)c1ccc(CC(=O)N2CCCc3ncc(C(=O)Nc4cccc(Cl)c4)cc32)cc1 | 15.3 µM [falling, partial curve] |
| Cn1nccc1C(=O)N1CCCN(CCc2ccccc2)c2ccccc21 | 21.7 µM [falling, partial curve] |
| COc1ccc(C2Cn3nnc(C(=O)N4CCN(C(=O)Cc5ccccc5Cl)CC4)c3CO2)cc1 (configuration not stated) | 19.3 µM [falling, partial curve] |
| C[S+](=O)([O-])CCn1ncc2cc(OCC3CCN(c4ncc(F)cn4)CC3)ccc21 | 9.94 µM [falling, full curve] |

| Structure (SMILES) | CC50 |
| --- | --- |
| C1CCC(COCCc2noc(C3CNC3)n2)C1 | 6.11 µM [rising, partial curve, poor fit] |
| CC1(NC(=O)C2CC2)CN(c2ccc(Oc3ccccc3)cc2)C1 | 28 µM [falling, partial curve] |
| O=C(c1ccccc1)N1CCNc2cnc(Nc3cccc(C(F)(F)F)c3)nc2C1 | 31.4 µM [falling, partial curve] |
| Cc1noc(C)c1CCC(=O)NC1CCCc2c1[nH]c1c(Cl)cccc21 (configuration not stated) | 27.3 µM [falling, single point] |
| COc1ccc(C(=O)N2CCN(c3cc(-c4ccc(Cl)cc4)[nH]n3)CC2)cc1 | 19.3 µM [falling, partial curve] |
| COc1ccc(OCC2(C)COc3ccc(C(=O)Nc4cccnc4)cc3N2)cc1 (configuration not stated) | 39.6 µM [falling, partial curve] |
| O=C(Nc1ccc2cn[nH]c2c1)c1ccc2c(c1)OCCN(c1ccccc1)C2 | 44.4 µM [falling, single point] |
| COc1ccc(NC(=O)Cc2c[nH]c3ncc(-c4ccccc4C)cc23)cc1 | 39.6 µM [falling, partial curve] |
| Cc1ccc(C(=O)N2CCC(Cc3nc(-c4ccccc4)no3)CC2)cn1 | 5.44 µM [falling, full curve] |
| COc1ccc(CCCN2C(=O)O[C@@H]3CN(c4cc(OC)ncn4)C[C@@H]32)cc1 | 19.3 µM [falling, partial curve] |
| Cc1ccc(NC(=O)C2CCN(c3cc(C(F)(F)F)ncn3)CC2)cc1 | 19.3 µM [falling, partial curve] |
| O=c1[nH]c(C2CCN(Cc3ccc(-c4cccnc4)cc3)CC2)nc2ccc(F)cc12 | 12.2 µM [falling, partial curve] |
| O=C(C[C@@H]1CCNC[C@@H]1Cc1cc(CC2CCCCC2)on1)NCc1ccccc1 | 28 µM [falling, partial curve] |
| COc1ccc(C(=O)Nc2ccc(-c3noc([C@@H]4CCCN4Cc4ccccc4C)n3)cn2)cc1 | 9.68 µM [falling, partial curve] |
| O=C(Nc1ccc(Oc2ccccc2)cc1)O[C@@H]1CO[C@H]2[C@@H]1OC[C@@H]2NCC1CCCCC1 | 15.3 µM [falling, partial curve] |
| Clc1ccc2nc(N3CCC(NCCc4cccnc4)CC3)sc2c1 | 19.3 µM [falling, partial curve] |
| c1csc(-c2ccnc(N[C@H]3CO[C@H]4[C@@H]3OC[C@@H]4NCC3CCCCC3)n2)c1 | 25 µM [falling, partial curve] |
| COc1cccc(-c2ccc(CN3CCCC(c4nc5ccc(C)cc5c(=O)[nH]4)C3)cc2)c1 (configuration not stated) | 24.3 µM [falling, partial curve] |
| CC(C)(C)c1csc(NC(=O)c2ccc3c(c2)OCCN(C2CCC2)C3)n1 | 28 µM [falling, partial curve] |
| O=C(Nc1ccc(Oc2ccccc2)cc1)N[C@H]1CO[C@H]2[C@@H]1OC[C@@H]2n1nnnc1Oc1ccc(-n2ccnc2)cc1 | 19.3 µM [falling, partial curve] |
